Test results: ChEMBL document CHEMBL1201862, “PubChem BioAssay data set” (2004)
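Grown in 96-well plates, cells were treated for 48 hours with each compound at five concentrations. Insufficient inhibition: endpoint recorded as highest concentration tested. GI50 is the concentration that inhibits growth by half.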 The source made the active and inactive calls. Rule as the data show it: active = GI50 up to about 1.1 µM and inactive = higher. Numbered stars: 1 amine (or outer) side, 2 acyl side, 3 side chain; on linkers, the order of the positions; unused ones are H or OH. Bridge positions count the residues as written; N and C are the ends. Square brackets hold non-standard residues; d marks the D form. Peptide text beside a SMILES is read from it. * marks the point of attachment. X31 = O=C(C(CCCCNO[*:3])N[*:1])[*:2]; Fmoc = O=C(OCC1c2ccccc2-c2ccccc21)*

Test system: NCI-H322M
Experiment: NCI-60 cell line screen, 48 h

Structure (SMILES)	GI50
O=C(ON=C1c2ccccc2C(Br)C(Br)c2ccccc21)c1ccccc1 (stereo not given)	inactive: 16.4 µM
Cc1c2ccccc2c(CSC(=N)N)c2ccccc12	active: 0.217 µM
CC12CCC(=O)[C@@]1(C)CCCC2O (stereo not given in full)	inactive: > 100 µM
Cc1cc(O)c2c(c1)C(O)(c1ccc3c(c1O)C(=O)c1c(O)cc(C)cc1C3(O)C1OC(CO)C(O)C(O)C1O)c1cccc(O)c1C2=O (stereo not given)	inactive: 17.4 µM
COc1cc(-c2cc(=O)c3cc4c(cc3[nH]2)OCO4)cc(OC)c1O	inactive: > 10 µM
C1=CC=C2NCCCCCC/N=C3\C=CC=CC=C3NCCc3cccc(c3)CC/N=C/2C=C1	inactive: 21.1 µM
CC1=N/C(=C\c2ccc(C)cc2)C(=O)O1	inactive: > 100 µM
CC(=O)c1ccc(NC(=O)C(=O)Nn2c(S)nc3ccccc3c2=O)cc1	inactive: > 100 µM
Cc1ccc(S(=O)(=O)NC(=O)C2C(=O)CC3(CCCCC3)CC2=O)cc1	inactive: 25.4 µM
COc1cccc(/C=C2\N=C(Cl)OC2=O)c1O	inactive: > 100 µM
CCOC(=O)c1nc2ccc(C(F)(F)F)cc2nc1Oc1ccc(F)cc1	inactive: > 100 µM
O=C(O)CCCCCCC[C@H]1S[C@H]1CCCCCCO	inactive: > 100 µM
CCOC(=O)/C=C(/C(=O)OCC)n1c(=O)c(C)cn(C2CC(N=[N+]=[N-])C(CO)O2)c1=O (stereo not given)	inactive: 69 µM
CCSc1c2ccccc2nc2c(OC)ccc(OC)c12	inactive: 25.9 µM
CCCCCCCCCCCC(=O)N(CCCCCCCCCCC(=O)O)CC(O)C(O)C(OC1OC(CO)C(O)C(O)C1O)C(O)CO (stereo not given)	inactive: > 100 µM
Nc1cc(CO)cc(Nc2c3ccccc3nc3ccccc23)c1	inactive: 24.4 µM
CN(CCCCCl)P(=O)(OCc1ccc([N+](=O)[O-])o1)OC[C@H]1O[C@@H](n2cc(F)c(=O)[nH]c2=O)C[C@@H]1O (stereo not given in full)	inactive: 4.39 µM
COc1cccc2c1C(=O)c1c(O)c3c(c(O)c1C2=O)C[C@@](O)(C(=O)CN1CCOCC1)C[C@@H]3OC1CC(N)C(O)C(C)O1 (stereo not given in full)	inactive: 10.1 µM
CCc1n[nH]c(=O)n1-c1ccncc1	inactive: > 100 µM
O=C1c2cccc([N+](=O)[O-])c2C(=O)c2nccnc21	inactive: 2.2 µM
Cc1ccc(O)c(C(c2ccc(C(c3cc(C)ccc3O)c3cc(C)ccc3O)cc2)c2cc(C)ccc2O)c1	inactive: 1.56 µM
CN(CCC(=O)O)S(=O)(=O)c1ccccc1	inactive: > 100 µM
COC1CC(OS(=O)(=O)c2ccc(C)cc2)C(OS(=O)(=O)c2ccc(C)cc2)C(COS(=O)(=O)c2ccc(C)cc2)O1 (stereo not given)	inactive: 15.5 µM

Structure (SMILES)	GI50
CC1(c2ccccc2)N=c2[nH]cnc2=C(C(N)=O)N1 (stereo not given)	inactive: > 100 µM
CCN(CC)c1ccc2c(c1)OC(=O)C(c1nnc(-c3ccc([N+](=O)[O-])cc3)o1)C2 (stereo not given)	inactive: 44.1 µM
COc1nc2c(OC)cccc2c(OC)c1C=O	inactive: > 100 µM
CCCNC1=C2CC(C)CC(OC)[C@@H](O)[C@H](C)/C=C(\C)C(OC(N)=O)C(OC)/C=C\C=C(/C)C(=O)NC(=CC1=O)C2=O (stereo not given in full)	active: 0.0631 µM
c1ccc(C(CCN2CC3CCC(CC3)C2)c2ccccc2)cc1	inactive: 38.9 µM
COc1cccc(/C=N/C(/N=C/c2cccc(OC)c2O)c2cccc(OC)c2O)c1O	active: 0.673 µM
O=C1C(Br)=CC2(C=C1Br)CCNC1=C2C(=O)c2ccccc2C1=O	inactive: 35.2 µM
CN(C(=N)c1ccccc1)c1ccccc1	inactive: > 100 µM
CCOc1ccccc1/N=C(/NC(=O)CC)SC	inactive: > 10 µM
N#CC(=S)Nc1ccc(F)cc1	inactive: 75.9 µM
O=C1/C(=C/c2cccc3ccccc23)Cc2ccccc21	inactive: 37 µM
Cc1nc(O)nc(N/N=C/c2ccc(Cl)c(Cl)c2)c1C(=O)Nc1ccc(Cl)c(Cl)c1	inactive: > 35.1 µM
Nc1nc(Cl)cc(NC2(CO)CCC2)n1	inactive: > 100 µM
C=CCON(C(=O)OC(C)(C)C)C(C)(C)C	inactive: > 100 µM
CC(=O)OCC1OC(n2c(N)c(C#N)c(-c3ccccc3)c(C#N)c2=S)C(OC(C)=O)C(OC(C)=O)C1OC(C)=O (stereo not given)	inactive: > 100 µM
O=C(NCCO)c1ccc(Cl)cc1	inactive: > 100 µM
Cc1nc2ccc(S(=O)(=O)Nc3ccc(Cl)cc3)cc2c(=O)n1NC(=O)CNc1ccc(Cl)cc1	inactive: > 100 µM
C/C(=C(/C)c1cc[n+](C)cc1)c1cc[n+](C)cc1	inactive: > 75 µM
CCOC(=O)C1=C(c2ccccc2)C12N(Cc1ccccc1)C(=O)C2(c1ccccc1)c1ccccc1 (stereo not given)	inactive: > 100 µM
Clc1cc2ccccc2c2ccccc12	inactive: > 100 µM
CC(=O)Oc1ccc2[nH]c3c(C)c4cccc-4ccc3c2c1	inactive: 2.29 µM
CCN(CC)C(=O)Cn1c(C)cc2ccccc21	inactive: > 100 µM
COc1ccc2sc(-n3nc4ccccc4c3Nc3nc4ccc(OC)cc4s3)nc2c1	inactive: 2.04 µM

Structure (SMILES)	GI50
CC(=O)ON(C(C)=O)C1C(COC(c2ccccc2)(c2ccccc2)c2ccccc2)OC2OC3(CCCC3)OC21 (stereo not given)	inactive: > 81.5 µM
COC(=O)CCC(C)C1CCC2C3CCC4CC5CCC4(C)C3(O5)C(Br)C(Br)C12C (stereo not given)	inactive: > 100 µM
Cc1ccc(NC(=O)COC(=O)c2cccc3c(=O)c4ccccc4[nH]c23)cc1	inactive: 44 µM
CCOC(=O)C(C(C)=O)C1CC=CC1 (stereo not given)	inactive: > 100 µM
O=C1OC(C2=CC(=O)c3ccccc3C2=O)C(Cl)=C1Cl (stereo not given)	inactive: > 100 µM
COc1ccc(C(OCC2OC(n3cnc4c(=O)n(Cc5ccccc5[N+](=O)[O-])nnc43)C(O)C2O)(c2ccccc2)c2ccc(OC)cc2)cc1 (stereo not given)	inactive: 21.3 µM
CCOC(=O)NC(Nc1c(F)c(F)c(F)c(F)c1F)(C(F)(F)F)C(F)(F)F	inactive: > 100 µM
CC(Br)CN1CCOCC1 (stereo not given)	inactive: > 100 µM
NC(=O)CNC(=O)C1CCCN1C(=O)C1CCCCNOC(=O)CCC(NC(=O)OCC2c3ccccc3-c3ccccc32)C(=O)NC(Cc2c[nH]c3ccccc23)C(=O)N1 (stereo not given) (Fmoc-EW[X31]PG-NH2; ester 1-3; configuration not given here)	inactive: > 100 µM
CCN1CCCC(NCc2c3ccccc3c(CNC3CCCN(CC)C3)c3ccccc23)C1 (stereo not given)	inactive: 20.2 µM
CC1(C)OCC([C@H]2CC23SCCCS3)O1 (stereo not given in full)	inactive: > 100 µM
CC/C=C/c1cc2cc[nH]c2c2c1C(C)C[C@@H]2C (stereo not given in full)	inactive: 47.2 µM
COc1cc2c(cc1OC)[C@H]1C(=O)c3cc4c(cc3[C@H]1N(C)C2=O)OCO4	inactive: > 35 µM
O/N=C\c1c2c(cc3c1CCC3)CCC2	inactive: > 100 µM
Cc1oc2c(Cl)cc(O)c(Cl)c2c2cccc1-2	inactive: 41.2 µM
CC(=O)OCC1OC(N2C(C)=C(C(C)=O)C(c3ccc(Cl)cc3)C(C#N)=C2S)C(OC(C)=O)C(OC(C)=O)C1OC(C)=O (stereo not given)	inactive: > 100 µM
Cc1cc(NS(=O)(=O)c2ccc(NC(=O)c3cccc4c(Nc5ccc(S(=O)(=O)N=C(N)N)cc5)c5ccccc5nc34)cc2)no1	inactive: > 100 µM
COc1ccc(OC)c2c(Nc3ccc(S(=O)(=O)O)c4cc(S(=O)(=O)O)cc(S(=O)(=O)O)c34)cc(C)nc12	inactive: > 100 µM
NN/C(=N\S(=O)(=O)c1cc(S(=O)(=O)c2ccccc2)cs1)Nc1ccc(Cl)cc1	inactive: 33.4 µM
COc1cc(/C=C2\N=C(c3ccccc3)N(c3ccc(S(=O)(=O)Nc4nccs4)cc3)C2=O)ccc1O	inactive: > 100 µM
CC1C[C@H](OC(N)=O)C(C)CC1=O (stereo not given in full)	inactive: > 100 µM
O=[N+]([O-])C(C(Cl)=C(Cl)Cl)=C(n1nnc2ccccc21)n1nnc2ccccc21	inactive: > 56.4 µM
Cc1cccc2c(=O)c3c(O)cc4c(c3n(C)c12)C=CC(C)(C)O4	inactive: > 100 µM

Structure (SMILES)	GI50
COc1cccc(-c2cc(O)c3cc(N)ccc3n2)c1	inactive: 12.6 µM
CN(C)C1=Nc2ccccc2C(=S)N2CSCC12 (stereo not given)	inactive: > 100 µM
COc1ccc(C(=O)Nc2ccn(CCOC(=O)c3ccc(OC)cc3)c(=O)n2)cc1	inactive: > 100 µM
CCN(CC)CC(C)(C)C(=O)/C=C/c1cccc(/C=C/C(=O)C(C)(C)CN(CC)CC)c1	inactive: 1.47 µM
CCC/C(Cl)=N\OC(=O)Nc1ccc(Br)cc1	inactive: 14.5 µM
O=C(N[C@H]1CC2(C=C(I)C(=O)C(I)=C2)OC1=O)OCc1ccccc1	inactive: 39.8 µM
CCOC(=O)[C@H]1Nc2ccc(C)cc2C2c3ccccc3CC21 (stereo not given in full)	inactive: > 100 µM
C=C(Cl)CN1c2ccccc2C=Cc2ccccc21	inactive: 23.8 µM
Cc1ccc(/C=C2/N/C(=N\N=C/c3ccccc3)NC2=O)cc1	inactive: 68.2 µM
Cc1cn([C@H]2CN(O)C[C@@H](CO)O2)c(=O)[nH]c1=O	inactive: > 100 µM
CC(=O)Nc1ccc2c3c(cc(O)c2c1)N(C(=O)CCCCCC(=O)N1CC(CCl)c2c1cc(O)c1cc(NC(C)=O)ccc21)CC3CCl (stereo not given)	active: 0.179 µM
CCOC(=O)/C=C(/C(=O)OCC)n1ccc(=O)[nH]c1=O	inactive: 17.5 µM
CN(N)C(=O)NCCCl	inactive: > 100 µM
Cc1c2ccncc2cc2c1sc1ccncc12	inactive: 3.47 µM
Cc1nc2sccn2c1/C=C1/C(=O)Nc2cccc(Cl)c21	inactive: > 100 µM
COc1cc2c3c(n(C)c(=O)c2cc1OC)-c1cc2c(cc1C3=O)OCO2	inactive: 40.1 µM
O=C(c1cccs1)N(C(=S)N1CCN(c2ccccc2)CC1)C1CCCCC1	inactive: > 100 µM
CCC/C(=N\NC(=S)N1CCN(c2ccccn2)CC1)c1ccccn1	active: 0.00364 µM
CC1CCN(CCC(=O)CC(c2ccccc2)c2c(O)c3ccccc3oc2=O)CC1 (stereo not given)	inactive: > 100 µM
O=C(CCCCCCCCC(=O)OCC1OC(n2cnc3c(=O)[nH]cnc32)C(O)C1O)OCC1OC(n2cnc3c(=O)[nH]cnc32)C(O)C1O (stereo not given)	inactive: > 100 µM
C=C1C(=O)C=C2C=C3C(=O)C(C)(C)C[C@]3(O)C12C (stereo not given in full)	inactive: 19.3 µM
